# Source: the supplement of paper PMC4604168 (melanoma cell lines)
# This is one part of the list. Many values rest on one well or one pass, so single values are uncertain.
# Test system: WM1716
# Assay: cell count relative to DMSO control; melanoma cells; higher = more viable cells
# Details: library dose: standard library concentration; 72 h
# 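Note: cells treated in 1,536-well plates, then fixed and DAPI-stained, with nuclei counted from automated high-throughput microscope images.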
row,SMILES,cell count [%]
1,"Cn1cnc2c(F)c(Nc3ccc(Br)cc3Cl)c(C(=O)NOCCO)cc21 [selumetinib] + Cc1cc([N+](=O)[O-])ccc1NS(=O)(=O)c1cc(Cl)ccc1Cl [FH535] (first compound 0.075 µM, partner dose 5 µM)",64.3
2,"Cn1cnc2c(F)c(Nc3ccc(Br)cc3Cl)c(C(=O)NOCCO)cc21 [selumetinib] + COc1cc2ncnc(Nc3ccc(Oc4ccccc4)cc3)c2cc1OC [SrcI1] (first compound 0.075 µM, partner dose 10 µM)",57.6
3,"C[C@]1(O)C[C@@H](c2nc(-c3ccc4ccc(-c5ccccc5)nc4c3)c3c(N)nccn32)C1 + CCc1ccc(CCOc2ccc(CC3SC(=O)NC3=O)cc2)nc1 [pioglitazone] (first compound 2 µM, partner dose 10 µM)",85.1
4,"CCN(CC)CCNC(=O)c1c(C)[nH]c(/C=C2\C(=O)Nc3ccc(F)cc32)c1C [sunitinib] + O=S(=O)(c1ccccc1)N(CC(F)(F)F)c1ccc(C(O)(C(F)(F)F)C(F)(F)F)cc1 [T0901317] (first compound 2 µM, partner dose 7 µM)",67
5,"Cn1cnc2c(F)c(Nc3ccc(Br)cc3Cl)c(C(=O)NOCCO)cc21 [selumetinib] + Oc1cc(-c2nc(-c3ccccc3)[nH]c2-c2ccncc2)ccc1Cl [L779450] (first compound 0.075 µM, partner dose 1 µM)",53.5
6,"C[C@]1(O)C[C@@H](c2nc(-c3ccc4ccc(-c5ccccc5)nc4c3)c3c(N)nccn32)C1 + N#Cc1c(O)c2c(-c3ccc(-c4ccccc4O)cc3)csc2[nH]c1=O [A769662] (first compound 2 µM, partner dose 10 µM)",123
7,"COc1cc([C@@H]2c3cc4c(cc3[C@@H](O[C@@H]3O[C@@H]5CO[C@@H](C)O[C@H]5[C@H](O)[C@H]3O)[C@H]3COC(=O)[C@H]23)OCO4)cc(OC)c1O [etoposide] + N#Cc1c(O)c2c(-c3ccc(-c4ccccc4O)cc3)csc2[nH]c1=O [A769662] (first compound 0.1 µM, partner dose 10 µM)",63.6
8,"CCN(CC)CCNC(=O)c1c(C)[nH]c(/C=C2\C(=O)Nc3ccc(F)cc32)c1C [sunitinib] + COc1ccc(-c2ccc3c(N4CCOCC4)nc(N4C[C@@H](C)O[C@@H](C)C4)nc3n2)cc1CO [KU0063794] (first compound 2 µM, partner dose 0.1 µM)",84.5
9,"CCN(CC)CCNC(=O)c1c(C)[nH]c(/C=C2\C(=O)Nc3ccc(F)cc32)c1C [sunitinib] + N#Cc1c(O)c2c(-c3ccc(-c4ccccc4O)cc3)csc2[nH]c1=O [A769662] (first compound 2 µM, partner dose 10 µM)",98.5
10,"Cn1cnc2c(F)c(Nc3ccc(Br)cc3Cl)c(C(=O)NOCCO)cc21 [selumetinib] + CCc1ccc(CCOc2ccc(CC3SC(=O)NC3=O)cc2)nc1 [pioglitazone] (first compound 0.075 µM, partner dose 10 µM)",80.6
11,"C[C@]1(O)C[C@@H](c2nc(-c3ccc4ccc(-c5ccccc5)nc4c3)c3c(N)nccn32)C1 + COc1ccc(-c2ccc3c(N4CCOCC4)nc(N4C[C@@H](C)O[C@@H](C)C4)nc3n2)cc1CO [KU0063794] (first compound 2 µM, partner dose 0.1 µM)",95.3
12,"Cn1cnc2c(F)c(Nc3ccc(Br)cc3Cl)c(C(=O)NOCCO)cc21 [selumetinib] + O=c1cc(-c2cccc3c2Sc2ccccc2S3)oc(N2CCOCC2)c1 [KU55933] (first compound 0.075 µM, partner dose 5 µM)",84.2
13,"Cn1cnc2c(F)c(Nc3ccc(Br)cc3Cl)c(C(=O)NOCCO)cc21 [selumetinib] + O=C(Nc1ccccc1)c1cc([N+](=O)[O-])ccc1Cl [GW9662] (first compound 0.075 µM, partner dose 10 µM)",78.2
14,"COc1cc([C@@H]2c3cc4c(cc3[C@@H](O[C@@H]3O[C@@H]5CO[C@@H](C)O[C@H]5[C@H](O)[C@H]3O)[C@H]3COC(=O)[C@H]23)OCO4)cc(OC)c1O [etoposide] + COc1cc(N2CCC(N3CCN(C)CC3)CC2)ccc1Nc1ncc(Cl)c(Nc2ccccc2S(=O)(=O)C(C)C)n1 [NVP-TAE684] (first compound 0.1 µM, partner dose 0.4 µM)",67.1
15,"Cn1cnc2c(F)c(Nc3ccc(Br)cc3Cl)c(C(=O)NOCCO)cc21 [selumetinib] + COc1ccc(COc2ccc(Cc3cnc(N)nc3N)cc2OC)cc1 [GW2580] (first compound 0.075 µM, partner dose 5 µM)",87.8
16,"CCN(CC)CCNC(=O)c1c(C)[nH]c(/C=C2\C(=O)Nc3ccc(F)cc32)c1C [sunitinib] + Oc1cc(-c2nc(-c3ccccc3)[nH]c2-c2ccncc2)ccc1Cl [L779450] (first compound 2 µM, partner dose 1 µM)",54.4
17,"Cn1cnc2c(F)c(Nc3ccc(Br)cc3Cl)c(C(=O)NOCCO)cc21 [selumetinib] + CCN(CC)CCCCNc1ncc2cc(-c3cc(OC)cc(OC)c3)c(NC(=O)NC(C)(C)C)nc2n1 [PD173074] (first compound 0.075 µM, partner dose 0.5 µM)",76
18,"COc1cc([C@@H]2c3cc4c(cc3[C@@H](O[C@@H]3O[C@@H]5CO[C@@H](C)O[C@H]5[C@H](O)[C@H]3O)[C@H]3COC(=O)[C@H]23)OCO4)cc(OC)c1O [etoposide] + CCCCCCCCCCCC1=C(O)C(=O)C=C(O)C1=O [Embelin] (first compound 0.1 µM, partner dose 6 µM)",50.9
19,"CCN(CC)CCNC(=O)c1c(C)[nH]c(/C=C2\C(=O)Nc3ccc(F)cc32)c1C [sunitinib] + Cc1cc([N+](=O)[O-])ccc1NS(=O)(=O)c1cc(Cl)ccc1Cl [FH535] (first compound 2 µM, partner dose 5 µM)",89.6
20,"C[C@]1(O)C[C@@H](c2nc(-c3ccc4ccc(-c5ccccc5)nc4c3)c3c(N)nccn32)C1 + COC(=O)c1sccc1S(=O)(=O)Nc1ccc(Nc2ccccc2)cc1OC [GSK0660] (first compound 2 µM, partner dose 5 µM)",86.1
21,"COc1cc([C@@H]2c3cc4c(cc3[C@@H](O[C@@H]3O[C@@H]5CO[C@@H](C)O[C@H]5[C@H](O)[C@H]3O)[C@H]3COC(=O)[C@H]23)OCO4)cc(OC)c1O [etoposide] + c1cc(-c2cnn3cc(-c4ccc(OCCN5CCCCC5)cc4)cnc23)ccn1 [Dorsomorphin] (first compound 0.1 µM, partner dose 2 µM)",52.5
22,"C[C@]1(O)C[C@@H](c2nc(-c3ccc4ccc(-c5ccccc5)nc4c3)c3c(N)nccn32)C1 + CCN(CC)CCCCNc1ncc2cc(-c3cc(OC)cc(OC)c3)c(NC(=O)NC(C)(C)C)nc2n1 [PD173074] (first compound 2 µM, partner dose 0.5 µM)",95
23,"COc1cc([C@@H]2c3cc4c(cc3[C@@H](O[C@@H]3O[C@@H]5CO[C@@H](C)O[C@H]5[C@H](O)[C@H]3O)[C@H]3COC(=O)[C@H]23)OCO4)cc(OC)c1O [etoposide] + CCN(CC)CCCCNc1ncc2cc(-c3cc(OC)cc(OC)c3)c(NC(=O)NC(C)(C)C)nc2n1 [PD173074] (first compound 0.1 µM, partner dose 0.5 µM)",69.4
24,"COc1cc([C@@H]2c3cc4c(cc3[C@@H](O[C@@H]3O[C@@H]5CO[C@@H](C)O[C@H]5[C@H](O)[C@H]3O)[C@H]3COC(=O)[C@H]23)OCO4)cc(OC)c1O [etoposide] + O=C(Nc1ccccc1)c1cc([N+](=O)[O-])ccc1Cl [GW9662] (first compound 0.1 µM, partner dose 10 µM)",66.5
25,"COc1cc([C@@H]2c3cc4c(cc3[C@@H](O[C@@H]3O[C@@H]5CO[C@@H](C)O[C@H]5[C@H](O)[C@H]3O)[C@H]3COC(=O)[C@H]23)OCO4)cc(OC)c1O [etoposide] + COc1ccc2c(c1)CCC1C2CCC2(C)C(NCCCCCCN3C(=O)C=CC3=O)CCC12 [U73122] (first compound 0.1 µM, partner dose 2 µM)",56
26,"Cn1cnc2c(F)c(Nc3ccc(Br)cc3Cl)c(C(=O)NOCCO)cc21 [selumetinib] + O=C(O)C(=O)Nc1sc2c(c1C(=O)O)CCNC2 [TCS401] (first compound 0.075 µM, partner dose 8.33333 µM)",80
27,"C[C@]1(O)C[C@@H](c2nc(-c3ccc4ccc(-c5ccccc5)nc4c3)c3c(N)nccn32)C1 + Oc1nc(-c2ccc(C(F)(F)F)cc2)nc2c1CSCC2 [XAV939] (first compound 2 µM, partner dose 10 µM)",64.4
28,"COc1cc([C@@H]2c3cc4c(cc3[C@@H](O[C@@H]3O[C@@H]5CO[C@@H](C)O[C@H]5[C@H](O)[C@H]3O)[C@H]3COC(=O)[C@H]23)OCO4)cc(OC)c1O [etoposide] + Oc1cc(-c2nc(-c3ccccc3)[nH]c2-c2ccncc2)ccc1Cl [L779450] (first compound 0.1 µM, partner dose 1 µM)",61.7
29,"C[C@]1(O)C[C@@H](c2nc(-c3ccc4ccc(-c5ccccc5)nc4c3)c3c(N)nccn32)C1 + CCCCCCCCCCCC1=C(O)C(=O)C=C(O)C1=O [Embelin] (first compound 2 µM, partner dose 6 µM)",79.7
